Reference: PMC4854477
These are yes or no findings as the source states them, for the method shown. In cells and extracts the contact can be indirect. Some results given as binding are weak or reduced against the parent protein; the word gives no strength. For some assays here: Sequences can lack the tags named with a protein.

Amino acid sequences for entries named in this document (tags omitted).
UniProt P10644: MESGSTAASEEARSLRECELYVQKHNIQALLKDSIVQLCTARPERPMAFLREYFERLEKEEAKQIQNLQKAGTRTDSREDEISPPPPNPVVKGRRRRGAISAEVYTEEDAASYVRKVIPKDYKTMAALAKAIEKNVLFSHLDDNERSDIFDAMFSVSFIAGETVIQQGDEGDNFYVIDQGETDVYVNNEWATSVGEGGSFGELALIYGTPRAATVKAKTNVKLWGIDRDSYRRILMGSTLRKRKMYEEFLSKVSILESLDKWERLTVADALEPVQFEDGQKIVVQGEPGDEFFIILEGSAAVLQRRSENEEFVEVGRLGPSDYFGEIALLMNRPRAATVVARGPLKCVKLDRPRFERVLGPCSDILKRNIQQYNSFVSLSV
UniProt P13861: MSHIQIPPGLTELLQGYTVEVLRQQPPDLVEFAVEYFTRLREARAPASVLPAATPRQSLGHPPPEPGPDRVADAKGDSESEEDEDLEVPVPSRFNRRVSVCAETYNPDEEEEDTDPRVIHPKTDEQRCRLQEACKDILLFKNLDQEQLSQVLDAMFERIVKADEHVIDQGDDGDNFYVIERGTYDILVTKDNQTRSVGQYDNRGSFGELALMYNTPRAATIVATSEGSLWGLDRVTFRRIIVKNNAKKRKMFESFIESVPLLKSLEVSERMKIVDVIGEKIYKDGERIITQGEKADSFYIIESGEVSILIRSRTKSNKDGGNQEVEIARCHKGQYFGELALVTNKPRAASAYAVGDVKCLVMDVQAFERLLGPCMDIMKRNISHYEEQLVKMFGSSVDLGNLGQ

Columns and labels:
[1] = biological target: HAdV-5 E1A expressed from WT virus (dl309) (HAdV-5) (UniProt P03255); experiment: co-IP
[2] = biological target: HAdV-5 E1A 187–289, EGFP fusion (HAdV-5) (UniProt P03255); experiment: co-IP; HT1080 cells co-transfected with PKA subunit constructs and E1A constructs; NP40 lysis buffer (150mM NaCl, 50mM Tris-HCL pH 7.5, 0.1% NP-40); immunoprecipitation at 4°C for 4 hours; western blot
[3] = biological target: WT HAdV-5 E1A, transfected (pcDNA3) (HAdV-5) (UniProt P03255); experiment: as above
[4] = biological target: HAdV-5 E1A Δ1–14 (HAdV-5) (UniProt P03255); experiment: as above
[5] = biological target: HAdV-5 E1A 14–28, EGFP fusion (HAdV-5) (UniProt P03255); experiment: as above
[6] = biological target: HAdV-5 E1A 139–204, EGFP fusion (HAdV-5) (UniProt P03255); experiment: as above
[7] = biological target: HAdV-5 E1A 93–139, EGFP fusion (HAdV-5) (UniProt P03255); experiment: as above
[8] = biological target: HAdV-5 E1A Δ1–82 (HAdV-5) (UniProt P03255); experiment: as above
[9] = biological target: HAdV-5 E1A 1–82, EGFP fusion (HAdV-5) (UniProt P03255); experiment: as above
[10] = biological target: HAdV-5 E1A Δ1–29 (HAdV-5) (UniProt P03255); experiment: as above
[11] = biological target: WT HAdV-5 E1A, transfected (pcDNA3) (HAdV-5) (UniProt P03255); experiment: co-IP; HT1080 cells co-transfected with the PKA subunits, WT E1A and the inhibitors RIAD-EGFP or sAKAPis-EGFP; immunoprecipitation with an anti-E1A antibody; PKA subunits detected by western blot
WT AKAP1, EGFP fusion = biological target: T1, WT AKAP1, EGFP fusion (UniProt Q92667); experiment: co-IP; HT1080 cells co-transfected with PKA subunits and EGFP fusions of AKAP1 constructs; immunoprecipitation with an anti-EGFP antibody; co-precipitating PKA detected by western blot
T1 sequence: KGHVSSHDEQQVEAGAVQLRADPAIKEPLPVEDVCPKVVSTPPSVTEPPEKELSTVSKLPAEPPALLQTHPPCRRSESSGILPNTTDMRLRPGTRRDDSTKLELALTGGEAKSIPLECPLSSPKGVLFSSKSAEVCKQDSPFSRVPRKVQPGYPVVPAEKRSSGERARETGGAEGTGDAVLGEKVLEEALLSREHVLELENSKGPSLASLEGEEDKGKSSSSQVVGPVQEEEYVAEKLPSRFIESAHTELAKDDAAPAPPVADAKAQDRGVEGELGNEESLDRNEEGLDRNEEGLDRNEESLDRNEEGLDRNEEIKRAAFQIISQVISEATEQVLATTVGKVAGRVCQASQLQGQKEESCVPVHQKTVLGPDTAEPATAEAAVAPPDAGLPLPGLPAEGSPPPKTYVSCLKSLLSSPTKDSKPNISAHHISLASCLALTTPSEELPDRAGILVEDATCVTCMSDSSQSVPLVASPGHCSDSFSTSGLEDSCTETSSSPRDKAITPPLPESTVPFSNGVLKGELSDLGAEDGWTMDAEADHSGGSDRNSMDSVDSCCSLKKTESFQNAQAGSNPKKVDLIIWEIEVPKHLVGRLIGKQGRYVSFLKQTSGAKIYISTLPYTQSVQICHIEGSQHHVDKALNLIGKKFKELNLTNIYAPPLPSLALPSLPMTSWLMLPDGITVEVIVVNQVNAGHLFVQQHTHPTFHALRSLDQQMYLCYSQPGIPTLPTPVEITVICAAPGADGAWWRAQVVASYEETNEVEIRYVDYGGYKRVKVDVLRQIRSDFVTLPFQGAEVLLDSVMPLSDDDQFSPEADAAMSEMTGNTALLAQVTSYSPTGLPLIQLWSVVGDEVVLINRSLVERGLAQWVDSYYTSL

Row | Substance | binding [1] | binding [2] | binding [3] | binding [4] | binding [5] | binding [6] | binding [7] | binding [8] | binding [9] | binding [10] | binding [11] | binding (WT AKAP1, EGFP fusion)
1 | PKA regulatory subunit RIα, endogenous (from UniProt P10644 1-381) | binds |  |  |  |  |  |  |  |  |  |  | 
2 | PKA regulatory subunit RIIα, endogenous (from UniProt P13861 1-404) | binds |  |  |  |  |  |  |  |  |  |  | 
3 | WT RIα, transfected (from UniProt P10644 1-381) |  | no binding | binds | binds | binds | no binding | no binding | no binding | binds | no binding | binds | 
4 | WT RIIα, transfected (from UniProt P13861 1-404) |  | no binding | binds | binds | binds | no binding | no binding | no binding | binds | no binding | binds | binds
